The values below come from PubChem BioAssay AID1508624 (National Center for Advancing Translational Sciences (NCATS), 2021).

The structures appear in SMILES notation. In all, about 48,000 compounds went through this assay and about 120 (0.25%) were called active. Another 4% or so got no clear call; they are omitted. Calls follow the shape of the dose curve; as a rule, active = well fitted activation curve with a large enough effect; inconclusive = small, poorly fitted or top-dose-only effect, or another doubt; inactive = no such curve, though single readings can be large or run the other way. The list shows a part of the results.

The assay can be described thus: Primary qHTS for Identification of Small Molecule Activators of Huntingtin-Antisense Promoter Activity. Also: nearly all actives have a fitted effect of over 55% in size. As to conditions: HEK293 HTT-AS promoter firefly luciferase reporter (activity 0% = vehicle and -100% = no light), 24 h; series mostly up to 57.5 µM; activity change, positive = activation: at the top concentration. The essentials:
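HEK293 cells carrying firefly luciferase reporters were seeded at 2,500 per well in Opti-MEM and cultured for 24 h. They were then treated with compounds at up to 57.5 uM final for 24 h at 37 degrees C before Dual-Glo luminescence readout.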
As to `CCOc1cccc(C(=O)Nc2ccc3oc(-c4ccncc4)nc3c2)c1`, the “activity change, positive = activation” value was inactive: -24.5%.

Consider `COc1cc(OC)c(NS(=O)(=O)c2c(C)nc3sc(C)cn3c2=O)cc1Cl`, for which the “activity change, positive = activation” value was inactive: -38.3%.

On to `COc1ccc(-c2cc(OC(=O)c3ccccc3Cl)c3c(C)oc(C)c3c(=O)c2)cc1OC`, for which the “activity change, positive = activation” value is inactive: -24.7%.

Turning to `COc1ccc2c(CNC3CCCCCC3)c(C(=O)O)n(Cc3ccc(C)cc3)c2c1`, the “activity change, positive = activation” value is inactive: -36.3%.

With `COc1ccc(CNC(=O)CN2C(=O)COc3ccc(S(=O)(=O)N4CCCCC4)cc32)cc1`, the “activity change, positive = activation” value is inactive: -4.75%.

Regarding `CN(C)c1ccc(-c2nc3ncc(Cl)c(N4CCN(CC(=O)Nc5nccs5)CC4)c3[nH]2)cc1`, the “activity change, positive = activation” value is inactive: 14.2%.

With `Cc1cc(F)ccc1NC(=O)Cn1nc(N2CCN(c3ccccc3)CC2)ccc1=O`, the “activity change, positive = activation” value was inactive: -24.2%.

For `Cc1ccc(Cn2c(C)c3cnn(CC(=O)O)c(=O)c3c2C)cc1`, the “activity change, positive = activation” value was inactive: 1.82%.

For the molecule `O=C(Cn1cc(SCc2ccc(F)cc2)c2ccccc21)N1CCCCC1`, the “activity change, positive = activation” value is inactive: 4.94%.

For `CCCSc1oc(-c2cccs2)nc1S(=O)(=O)c1ccc(C)cc1`, the “activity change, positive = activation” value was inactive: -15.3%.

As to `O=C(Nc1cccc(C(=O)OCc2cc(=O)n3c4c(sc3n2)CCCC4)c1)c1ccc(Cl)cc1`, the “activity change, positive = activation” value is inactive: -26.2%.

For the molecule `COc1ccc(NC(=O)Cn2c(=O)n(CCCCCC(=O)NCc3ccc4c(c3)OCO4)c(=O)c3sccc32)cc1Cl`, the “activity change, positive = activation” value is inactive: -60.4%.

In the case of `COc1cccc(N2CCN(C(=O)Cn3nc(C)n4c(cc5c(OC)cccc54)c3=O)CC2)c1`, the “activity change, positive = activation” value was inactive: 1.71%.

For the molecule `COC(=O)c1c(NC(=O)COc2ccc(Cl)cc2)sc(C)c1C`, the “activity change, positive = activation” value was inactive: -0.24%.

As to `COCc1cc(C)nc2c1C(=O)NC(c1ccc(Br)cc1)N2Cc1ccccc1` (centres undefined), the “activity change, positive = activation” value is inactive: -12.7%.

On to `COc1cc(Cl)c(C)cc1NC(=O)Cn1c2ncccc2c(=O)n1-c1ccccc1`, for which the “activity change, positive = activation” value was inactive: -6.11%.

Take `CCc1ccc(-n2nnc(-c3nc(-c4ccc(C)cc4)no3)c2N)cc1`: the “activity change, positive = activation” value is inactive: -1.9%.

Consider `COc1ccc(Cl)cc1C(=O)NCc1nnnn1-c1ccccc1`, for which the “activity change, positive = activation” value is inactive: 1.6%.

As for `CCc1ccc(NC(=O)C(=O)NCC(c2cccnc2)N2CCc3ccccc3C2)cc1` (centres undefined), the “activity change, positive = activation” value was inactive: -57.8%.

Regarding `COc1nnc(-c2ccc(N3CCCCC3)c(NC(=O)c3ccccc3Cl)c2)c2ccccc12`, the “activity change, positive = activation” value was inactive: -87%.

Regarding `O=C(Nc1sc2c(c1C(=O)NCc1ccccc1)CCCC2)c1cc(=O)c2ccccc2o1`, the “activity change, positive = activation” value was inactive: -16%.

For `O=C(NCc1ccc(Cl)cc1)C1CCN(c2ncnc3c2nc2n3CCCCC2)CC1`, the “activity change, positive = activation” value is inactive: -6.41%.

On to `CCOc1ccccc1C(=O)NCC(c1cccs1)S(=O)(=O)c1ccc(F)c(C)c1` (centres undefined), for which the “activity change, positive = activation” value is inactive: -7.84%.

In the case of `CCc1ccc(NC(=O)CSc2nc3c(c(=O)[nH]2)CN(Cc2ccc(C)cc2)CC3)cc1`, the “activity change, positive = activation” value was inactive: -23.5%.

For `Cc1ccc(C)c(N2CCN(C(=O)c3ccc4c(=O)n(CCc5ccccc5)c(=O)[nH]c4c3)CC2)c1`, the “activity change, positive = activation” value is inactive: -14.9%.

`CCCSCCCNC(=O)CN1C(=O)COc2ccc(S(=O)(=O)N3CCCC3)cc21`: the “activity change, positive = activation” value is inactive: -6.76%.

Consider `COc1cc(NC(=O)C2=CC(c3ccco3)=NS(=O)(=O)N2C)cc(OC)c1OC`, for which the “activity change, positive = activation” value was inactive: -12.5%.

As for `CCOC(=O)c1[nH]c2c(c1Cc1ccccc1OC)C(=O)CC(c1ccccc1)C2` (centres undefined), the “activity change, positive = activation” value is inactive: -36.6%.

For `CCCCn1c(=O)c2oc3ccccc3c2n(Cc2ccccc2C)c1=O`, the “activity change, positive = activation” value was inactive: -11.6%.

As to `O=C(COc1ccc(F)cc1)Nc1ccccc1C(=O)OCc1cc(=O)n2ccsc2n1`, the “activity change, positive = activation” value is inactive: 23.7%.

As to `Cc1nc(-c2ccccc2)sc1CCNC(=O)C(=O)Nc1ccc(F)c(Cl)c1`, the “activity change, positive = activation” value was inactive: -13.2%.

For `CCOc1ccc(-c2nonc2NC(=O)c2oc3ccc(C)cc3c2C)cc1OCC`, the “activity change, positive = activation” value was inactive: -0.495%.

In the case of `COc1ccc(Cn2ccn(Cc3cccc(Cl)c3)c(=O)c2=O)cc1`, the “activity change, positive = activation” value was inactive: -12.9%.

In the case of `Cc1ccc(S(=O)(=O)Cc2nc(-c3ccc(C(=O)NCc4ccccc4C)cc3)oc2C)cc1`, the “activity change, positive = activation” value was inactive: -25.4%.

As for `CCCn1cc(S(=O)(=O)c2ccc(OC)cc2)c(=O)c2cc(F)c(N3CCCC(C)C3)cc21` (centres undefined), the “activity change, positive = activation” value is inactive: -28.7%.

`CC(=O)c1ccc(NC(=O)C2=CC(c3ccc(C)cc3)=NS(=O)(=O)N2C)cc1`: the “activity change, positive = activation” value is inactive: -30.8%.

On to `O=C(COc1ccccc1F)Nc1c(C(=O)Nc2cccc(F)c2)oc2ccccc12`, for which the “activity change, positive = activation” value is inactive: 9.84%.

As for `Cc1ccc(C(=O)Nc2nc3nc(-c4ccccc4)cc(=O)n3[nH]2)cc1`, the “activity change, positive = activation” value was inactive: 11.4%.

As to `O=C(Nc1cc(-c2ccccc2F)nn1-c1ccccc1)c1ccccc1Br`, the “activity change, positive = activation” value was inactive: -26.6%.

For `CCCCCOC(=O)CSc1nc2sc3c(c2c(=O)n1-c1ccccc1)CC(C)(CC)OC3` (centres undefined), the “activity change, positive = activation” value was inactive: -9.45%.

For `CC1CCN(C(=O)Cn2cc(SCC(=O)Nc3ccccc3)c3ccccc32)CC1`, the “activity change, positive = activation” value was inactive: -4.33%.

For the molecule `COc1cccc(-c2nc(SCC(=O)NCc3ccco3)c3c(=O)n(C)c(=O)n(C)c3n2)c1`, the “activity change, positive = activation” value was inactive: 7.07%.

With `CCOC(=O)c1noc2ncnc(N3CCN(c4cccc(C(F)(F)F)c4)CC3)c12`, the “activity change, positive = activation” value was inactive: -10.9%.

For `COc1ccc(Cn2c(=O)n(-c3ccc(OC)cc3)c(=O)c3c2c2cc(OC)ccc2n3C)cc1`, the “activity change, positive = activation” value was inactive: 0.045%.

As to `COc1ccc(-c2cc(C)no2)cc1S(=O)(=O)NCc1ccco1`, the “activity change, positive = activation” value was inactive: -24.1%.

As to `CCN(CC)S(=O)(=O)c1ccc2c(c1)c(=O)c(C(=O)NCc1ccccc1Cl)cn2C`, the “activity change, positive = activation” value was inactive: -49.9%.

As to `CCOC(=O)c1c(-c2ccc(C)cc2)csc1NC(=O)c1cc(=O)c2cc(C)cc(C)c2o1`, the “activity change, positive = activation” value was inactive: 2.26%.

`COc1cc(NC(=O)c2c3c(nc4ccccc24)C(=O)N(C2CCCCC2)C3)cc(OC)c1`: the “activity change, positive = activation” value is inactive: -3.63%.

Take `COc1ccc(-n2c(SCc3ccccc3F)nc3c([nH]c4ccccc43)c2=O)cc1OC`: the “activity change, positive = activation” value was inactive: -36.7%.

Take `O=C(CSc1c2c(nc3cc(Cl)ccc13)CCCC2)N1CCN(c2ccccc2)CC1`: the “activity change, positive = activation” value is inactive: -52.5%.

`CC1(C)O[C@@H]2[C@@H](CO[C@@]3(COS(N)(=O)=O)OC(C)(C)O[C@@H]23)O1`: the “activity change, positive = activation” value was inactive: -8.03%.

On to `COc1ccc(OC)c(CCNC(=O)CCn2c(=O)c3cccn3c3ccc(F)cc32)c1`, for which the “activity change, positive = activation” value is inactive: -3.29%.

As for `Cc1cccc(S(=O)(=O)c2cn(C)c3cc(N4CCN(c5ccc(F)cc5)CC4)c(F)cc3c2=O)c1`, the “activity change, positive = activation” value was inactive: -17.7%.

For `CC(C)c1ccc(NC(=O)CSC2=Nc3ccccc3C3=NC(CCC(=O)NCc4ccco4)C(=O)N23)cc1` (centres undefined), the “activity change, positive = activation” value was inactive: 25.1%.

`COc1cc(NS(=O)(=O)c2ccc(N)cc2)nc(OC)n1`: the activity change, positive = activation result is “inactive”.

Consider `CC[N+](CC)(CC(=O)Nc1c(C)cccc1C)Cc1ccccc1`, for which the “activity change, positive = activation” value was inactive: -6.78%.

On to `Cc1ccc(CNC(=O)CCS(=O)(=O)c2cc3c(cc2C)NC(=O)CO3)cc1`, for which the “activity change, positive = activation” value was inactive: -6.73%.

Take `O=C(CSc1nc2c(oc3ccccc32)c(=O)n1Cc1ccco1)Nc1ccccc1`: the “activity change, positive = activation” value is inactive: -2.26%.

Consider `Cc1ccc(CN2CCCN(Cc3c(C)cc(C)cc3C)S2(=O)=O)cc1`, for which the “activity change, positive = activation” value was inactive: -9.29%.
